This note sets out measurements from publication PMC5892938.

This is one part of the list. At the low end of the ranking the order means little.

This assay addresses GST-SBP-SLBP (stem-loop binding protein) (UniProt Q14493). In words: targeted RNA Bind-n-Seq.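 Note: DESeq read counts versus GST-SBP nonspecific binding control pulldown.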 Particulars: RBNS binding buffer: 25 mM Tris pH 7.5, 150 mM KCl, 3 mM MgCl2, 0.1% Tween, 0.5 mg/mL BSA, 1 mM DTT; 27 nM protein, 750 pM RNA pool; temperature not stated; high values mean tight binding.
As for “GGUCACGUCUCAAUCAACUCAACGCCAGGAGUUUUCUCCUGUUAUUUCAACAGCUCGCAGUCAAG”, the binding signal (log2 fold change) is -0.112.
As for “GGUCACGUCUCAAUCAACUCUACUUCCAGGGAAAUCCCUGGUAAUCUCAACAGCUCGCAGUCAAG”, the binding signal (log2 fold change) came out at 0.135.
“GGUCACGUCUCAAUCAACUCUACUCCCAGGGAAAGCCCUGGCAAUUUCAACAGCUCGCAGUCAAG”: the binding signal (log2 fold change) was 0.1.
With “GGUCACGUCUCAAUCAACUCUAGUCCCAGGGAAAACCCUGGCAAAUUCAACAGCUCGCAGUCAAG” the figure was -0.0666; with “GGUCACGUCUCAAUCAACUCAUUUCCCAGGGAAAACCCUGGUUAUUUCAACAGCUCGCAGUCAAG”, 0.0871.
For the sequence “GGUCACGUCUCAAUCAACUCCUUAGAGGGGGGGAAAACCCCUUUACCCUCAUACUCAACAGCUCGCAGUCAAG”, the binding signal (log2 fold change) is -0.325.
With “GGUCACGUCUCAAUCAACUCUUCUUCAGGAGUUUUCUCCUGUUUUCUCAACAGCUCGCAGUCAAG” the figure was 0.00641; with “GGUCACGUCUCAAUCAACUCAUUCCCCAGGGAAAGCCCUGGUUUACUCAACAGCUCGCAGUCAAG”, -0.072.
As for “GGUCACGUCUCAAUCAACUCCUUAGAGGGGGGGAAAACCCCUUUGCCCUCAUACUCAACAGCUCGCAGUCAAG”, the binding signal (log2 fold change) was determined as 0.464.
With “GGUCACGUCUCAAUCAACUCUACUCCCAGGGAAAUCCCUGGUUUAUUCAACAGCUCGCAGUCAAG” the figure was 0.121; with “GGUCACGUCUCAAUCAACUCUUCCCCCAGGGAAAGCCCUGGUAAAUUCAACAGCUCGCAGUCAAG”, -0.0772; with “GGUCACGUCUCAAUCAACUCUCCAGAGGGGGGGAAAACCCCUUUACCCUCACUAUCAACAGCUCGCAGUCAAG”, 0.294.
Take “GGUCACGUCUCAAUCAACUCAUCUCCCAGGGAAAUCCCUGGUAAACUCAACAGCUCGCAGUCAAG”: the binding signal (log2 fold change) was 0.123.
As to “GGUCACGUCUCAAUCAACUCAAUCCCCAGGGAAAGCCCUGGCUAACUCAACAGCUCGCAGUCAAG”, the binding signal (log2 fold change) was -0.0761.
For the sequence “GGUCACGUCUCAAUCAACUCAUCCCCCAGGGAAAUCCCUGGCUUUCUCAACAGCUCGCAGUCAAG”, the binding signal (log2 fold change) is -0.0283.
On to “GGUCACGUCUCAAUCAACUCAAUUCCAGGAGUUUCCUCCUGCUUACUCAACAGCUCGCAGUCAAG”, for which the binding signal (log2 fold change) came out at 0.229.
With “GGUCACGUCUCAAUCAACUCUUCGCCCAGGGAAACCCCUGGUUAUCUCAACAGCUCGCAGUCAAG” the figure was -0.108; with “GGUCACGUCUCAAUCAACUCAAUCCCAGGAGUUUUCUCCUGCAUUCUCAACAGCUCGCAGUCAAG”, 0.283; with “GGUCACGUCUCAAUCAACUCCAUAGAGGGGGGGAAAACCCCUUUGCCCUCCAAAUCAACAGCUCGCAGUCAAG”, -0.171.
As to “GGUCACGUCUCAAUCAACUCAAAAGAGGGGGGGAAAACCCCUUUGCCCUCAUCAUCAACAGCUCGCAGUCAAG”, the binding signal (log2 fold change) was -0.177.
With “GGUCACGUCUCAAUCAACUCUUUCUCAGGAGUUUCCUCCUGCUUACUCAACAGCUCGCAGUCAAG” the figure was 0.271; with “GGUCACGUCUCAAUCAACUCUCACGAGGGGGGGAAAACCCCUUUACCCUCAUUAUCAACAGCUCGCAGUCAAG”, -0.253.
As for “GGUCACGUCUCAAUCAACUCUUCUUCCAGGGAAAUCCCUGGUUAUGUCAACAGCUCGCAGUCAAG”, the binding signal (log2 fold change) was -0.0129.
As for “GGUCACGUCUCAAUCAACUCUAUCUCAGGAGUUUCCUCCUGUUUAUUCAACAGCUCGCAGUCAAG”, the binding signal (log2 fold change) was -0.0312.
With “GGUCACGUCUCAAUCAACUCAAUCCCAGGAGUUUACUCCUGUUUUCUCAACAGCUCGCAGUCAAG” the figure was -0.22; with “GGUCACGUCUCAAUCAACUCUCCGGAGGGGGGGAAAACCCCUUUACCCUCAAUUUCAACAGCUCGCAGUCAAG”, -0.221.
In the case of “GGUCACGUCUCAAUCAACUCUAUCUCCAGGGAAAUCCCUGGCAUGUUCAACAGCUCGCAGUCAAG”, the binding signal (log2 fold change) is -0.0829.
As to “GGUCACGUCUCAAUCAACUCAACUUCCAGGGAAAGCCCUGGCAAUUUCAACAGCUCGCAGUCAAG”, the binding signal (log2 fold change) was -0.0704.
With “GGUCACGUCUCAAUCAACUCUUCUUCCAGGGAAAGCCCUGGCUUUCUCAACAGCUCGCAGUCAAG” the figure was -0.0891.
With “GGUCACGUCUCAAUCAACUCAAUUUCCAGGGAAAACCCUGGUUUAUUCAACAGCUCGCAGUCAAG” the figure was -0.134.
Turning to “GGUCACGUCUCAAUCAACUCCACGGAGGGGGGGAAAACCCCUUUACCCUCAAUCUCAACAGCUCGCAGUCAAG”, the binding signal (log2 fold change) was found to be 0.0204.
With “GGUCACGUCUCAAUCAACUCUACUUCCAGGGAAAUCCCUGGCAAACUCAACAGCUCGCAGUCAAG” the figure was 0.161; with “GGUCACGUCUCAAUCAACUCUUCUUCCAGGGAAAACCCUGGUAUAUUCAACAGCUCGCAGUCAAG”, -0.108.
With “GGUCACGUCUCAAUCAACUCAAGUCCAGGAGUUUUCUCCUGCAAAGUCAACAGCUCGCAGUCAAG” the figure was 0.447; with “GGUCACGUCUCAAUCAACUCUUUCCCCAGGGAAAUCCCUGGCUAACUCAACAGCUCGCAGUCAAG”, -0.0143.
With “GGUCACGUCUCAAUCAACUCUUCCUCAGGAGUUUUCUCCUGUUAUCUCAACAGCUCGCAGUCAAG” the figure was -0.0216; with “GGUCACGUCUCAAUCAACUCUAAAGAGGGGGGGAAAACCCCUUUACCCUCCACAUCAACAGCUCGCAGUCAAG”, 0.0526.
As to “GGUCACGUCUCAAUCAACUCUUUAGAGGGGGGGAAAACCCCUUUACCCUCAACUUCAACAGCUCGCAGUCAAG”, the binding signal (log2 fold change) is -0.273.
Regarding “GGUCACGUCUCAAUCAACUCCCUAGAGGGGGGGAAAACCCCUUUACCCUCCGUAUCAACAGCUCGCAGUCAAG”, the binding signal (log2 fold change) was 0.0636.
Turning to “GGUCACGUCUCAAUCAACUCUUCCCCAGGAGUUUCCUCCUGUUAAUUCAACAGCUCGCAGUCAAG”, the binding signal (log2 fold change) was 0.0064.
As for “GGUCACGUCUCAAUCAACUCAUCCUCAGGAGUUUUCUCCUGUAUACUCAACAGCUCGCAGUCAAG”, the binding signal (log2 fold change) turned out to be 0.0577.
With “GGUCACGUCUCAAUCAACUCCUUAGAGGGGGGGAAAACCCCUUUGCCCUCAAAAUCAACAGCUCGCAGUCAAG” the figure was -0.0247; with “GGUCACGUCUCAAUCAACUCAACUUCCAGGGAAAUCCCUGGCAUUUUCAACAGCUCGCAGUCAAG”, -0.319.
Consider “GGUCACGUCUCAAUCAACUCUUUUUCCAGGGAAAACCCUGGCAUGUUCAACAGCUCGCAGUCAAG”, for which the binding signal (log2 fold change) stood at 0.34.
Consider “GGUCACGUCUCAAUCAACUCUACUUCAGGAGUUUUCUCCUGUUUAUUCAACAGCUCGCAGUCAAG”, for which the binding signal (log2 fold change) is -0.101.
As for “GGUCACGUCUCAAUCAACUCAACUUCCAGGGAAAACCCUGGUAUUUUCAACAGCUCGCAGUCAAG”, the binding signal (log2 fold change) was -0.108.
Turning to “GGUCACGUCUCAAUCAACUCUAUCCCAGGAGUUUCCUCCUGUUAUUUCAACAGCUCGCAGUCAAG”, the binding signal (log2 fold change) is 0.135.
With “GGUCACGUCUCAAUCAACUCUUCGUCCAGGGAAACCCCUGGCUUUUUCAACAGCUCGCAGUCAAG” the figure was -0.111.
With “GGUCACGUCUCAAUCAACUCAUUUUCCAGGGAAAUCCCUGGUUUUCUCAACAGCUCGCAGUCAAG” the figure was 0.165.
Regarding “GGUCACGUCUCAAUCAACUCUUUCCCCAGGGAAACCCCUGGUUAUCUCAACAGCUCGCAGUCAAG”, the binding signal (log2 fold change) is 0.128.
For “GGUCACGUCUCAAUCAACUCUAUCUCCAGGGAAACCCCUGGUAAUCUCAACAGCUCGCAGUCAAG”, the binding signal (log2 fold change) was -0.0998.
For “GGUCACGUCUCAAUCAACUCUAUUUCCAGGGAAAACCCUGGCUAAUUCAACAGCUCGCAGUCAAG”, the binding signal (log2 fold change) was -0.116.
With “GGUCACGUCUCAAUCAACUCAAUCUCAGGAGUUUUCUCCUGCUUACUCAACAGCUCGCAGUCAAG” the figure was 0.114; with “GGUCACGUCUCAAUCAACUCAUCUUCAGGAGUUUACUCCUGCAAAUUCAACAGCUCGCAGUCAAG”, -0.0112; with “GGUCACGUCUCAAUCAACUCUACUUCCAGGGAAAUCCCUGGCAAAUUCAACAGCUCGCAGUCAAG”, -0.0875.
Consider “GGUCACGUCUCAAUCAACUCAUCGUCAGGAGUUUUCUCCUGCUUUCUCAACAGCUCGCAGUCAAG”, for which the binding signal (log2 fold change) is -0.0736.
In the case of “GGUCACGUCUCAAUCAACUCUUCGCCAGGAGUUUUCUCCUGCUAAUUCAACAGCUCGCAGUCAAG”, the binding signal (log2 fold change) was -0.0828.
“GGUCACGUCUCAAUCAACUCCACAGAGGGGGGGAAAACCCCUUUACCCUCCAUUUCAACAGCUCGCAGUCAAG”: the binding signal (log2 fold change) was -0.584.
On to “GGUCACGUCUCAAUCAACUCUCCCGAGGGGGGGAAAACCCCUUUACCCUCUAUAUCAACAGCUCGCAGUCAAG”, for which the binding signal (log2 fold change) was -0.352.
With “GGUCACGUCUCAAUCAACUCCAUAGAGGGGGGGAAAACCCCUUUACCCUCAACAUCAACAGCUCGCAGUCAAG” the figure was -0.00421; with “GGUCACGUCUCAAUCAACUCAAUCCCCAGGGAAAUCCCUGGCUUUCUCAACAGCUCGCAGUCAAG”, 0.15.
On to “GGUCACGUCUCAAUCAACUCAUUUUCCAGGGAAAACCCUGGUUUACUCAACAGCUCGCAGUCAAG”, for which the binding signal (log2 fold change) came to 0.0824.
Take “GGUCACGUCUCAAUCAACUCUACUUCAGGAGUUUGCUCCUGCAUUUUCAACAGCUCGCAGUCAAG”: the binding signal (log2 fold change) turned out to be 0.125.
Take “GGUCACGUCUCAAUCAACUCUCCCGAGGGGGGGAAAACCCCUUUACCCUCACCAUCAACAGCUCGCAGUCAAG”: the binding signal (log2 fold change) is -0.0296.
With “GGUCACGUCUCAAUCAACUCUUCCUCCAGGGAAACCCCUGGUAUAUUCAACAGCUCGCAGUCAAG” the figure was -0.0262.
“GGUCACGUCUCAAUCAACUCAUCUCCAGGAGUUUGCUCCUGUAAUCUCAACAGCUCGCAGUCAAG”: the binding signal (log2 fold change) came to 0.0533.
For the sequence “GGUCACGUCUCAAUCAACUCUAUGGAGGGGGGGAAAACCCCUUUACCCUCAACAUCAACAGCUCGCAGUCAAG”, the binding signal (log2 fold change) came out at 0.0463.
In the case of “GGUCACGUCUCAAUCAACUCUAUCUCCAGGGAAAGCCCUGGCAAACUCAACAGCUCGCAGUCAAG”, the binding signal (log2 fold change) is -0.192.
In the case of “GGUCACGUCUCAAUCAACUCUCCAGAGGGGGGGAAAACCCCUUUACCCUCCAAUUCAACAGCUCGCAGUCAAG”, the binding signal (log2 fold change) came out at 0.249.
With “GGUCACGUCUCAAUCAACUCUUUCUCAGGAGUUUUCUCCUGCUAUCUCAACAGCUCGCAGUCAAG” the figure was 0.0715; with “GGUCACGUCUCAAUCAACUCAAUUCCAGGAGUUUACUCCUGUUUAUUCAACAGCUCGCAGUCAAG”, -0.145.
With “GGUCACGUCUCAAUCAACUCUCACGAGGGGGGGAAAACCCCUUUACCCUCCAAUUCAACAGCUCGCAGUCAAG” the figure was -0.5; with “GGUCACGUCUCAAUCAACUCCAUCGAGGGGGGGAAAACCCCUUUACCCUCAAAAUCAACAGCUCGCAGUCAAG”, -0.154; with “GGUCACGUCUCAAUCAACUCAUCGGAGGGGGGGAAAACCCCUUUACCCUCAACAUCAACAGCUCGCAGUCAAG”, 0.253.
